Source: a compilation of properties of binary mixtures (doi:10.1021/acs.jced.5b00338)
Some of these densities may be calculated back from excess volumes.

Experiment: xn = mol fraction of the nth substance listed
Conditions: 100 kPa

CC[n+]1ccn(C)c1.O=S(=O)([N-]S(=O)(=O)C(F)(F)F)C(F)(F)F + O=C1OCCO1
x2 = 0
Conditions | mass density [kg/m3]
293.15 K | 1524
313.15 K | 1503.8
333.15 K | 1483.8
353.15 K | 1464.2

O=C1OCCO1 + CC[n+]1ccn(C)c1.O=S(=O)([N-]S(=O)(=O)C(F)(F)F)C(F)(F)F
mass density [kg/m3]
Conditions | 293.15 K | 313.15 K | 333.15 K | 353.15 K
x1 = 0.1896 | – | – | – | 1453.6
x1 = 0.3305 | 1508 | 1482.8 | 1466.9 | –
x1 = 0.4395 | 1495.1 | 1474.2 | 1453.5 | –
x1 = 0.5263 | 1485.8 | 1464.6 | 1443.8 | 1423.2
x1 = 0.6557 | – | 1448.9 | – | 1403.7
x1 = 0.7476 | 1447.6 | 1425.9 | 1404.4 | 1383.1
x1 = 0.8163 | – | 1407 | – | 1363.6
x1 = 0.8696 | 1409.6 | 1387.3 | – | 1343.4
x1 = 0.912 | – | 1369.3 | 1346.9 | 1324.7
x1 = 0.9467 | 1376.5 | 1354.1 | 1331.6 | –
x1 = 0.9756 | 1360.7 | 1337.9 | 1315.3 | 1292.7
x1 = 1 | – | 1321.9 | 1299.1 | 1276.3
